Hit rate of the full screen: of about 44,000 compounds, about 340 (0.77%) were called active. Another 5% or so got no clear call; they are omitted. Calls come from the whole dose curve; as a rule, active = well fitted inhibition curve with a large enough effect; inconclusive = small, poorly fitted or top-dose-only effect; inactive = flat fitted curve, though single readings scatter. The list shows a part of the results.
Experiment: Acumen qHTS Assay for Inhibitors of the mTORC1 Signaling Pathway in MEF (Tsc2-/-, p53-/-) Cells: Sytravon;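 note: plate controls were DMSO for no effect and rapamycin for full effect; nearly all actives have a fitted effect of over 50% in size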
Conditions: phospho-rpS6 immunofluorescence/PI, 24 h; series mostly up to 38.3 µM; activity change, negative = inhibition: at the top concentration
Procedure, shortened: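 Compounds act on Tsc2-/-, p53-/- fibroblasts carrying an empty vector for 24 h before fixation and dual staining for phospho-S6 and DNA (propidium iodide). Values are percentages of cells above a rapamycin-defined pS6/PI threshold.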

Activity change, negative = inhibition, inactive:
CCOc1ccc(C(=O)Nc2cccc(OCc3cc(=O)n4ccccc4n3)c2)cc1 -11.7%
Cc1ccccc1NS(=O)(=O)c1nnc(NC(=O)c2ccc(Cl)cc2)s1 5.88%
CCOC(=O)c1[nH]c(C)c(CCC(=O)Nc2ccc(C(C)=O)cc2)c1C 0.839%
O=S(=O)(Nc1cccc(-c2ccc(N3CCCCCC3)nn2)c1)c1ccc(F)cc1 0.435%
Cc1cccc(CNS(=O)(=O)c2csc(C(N)=O)c2)c1 3.62%
O=C1C(c2cccc(Br)c2)N(CCc2ccccc2)C(=O)CN1C1CCCCC1 (stereo unspecified) -0.455%
CCOc1cccc(CNCCNC(=O)c2nonc2N)c1 -10.2%
Cc1ccc(Cl)cc1NC(=O)C1CCCN(S(=O)(=O)c2cccc3cccnc23)C1 (stereo unspecified) -11.9%
COc1ccccc1CNC(=O)CSc1nc2nc(C)c(Cc3ccccc3Cl)c(C)n2n1 -23.1%
COc1ccc(N2C(=O)CS(=O)(=O)C23C(=O)N(Cc2ccc(F)cc2)c2ccc(C)cc23)cc1 (stereo unspecified) -14.2%
CCC(=O)N1CCc2cc(Br)cc(S(=O)(=O)N3CCCC(C(=O)Nc4cccc(C)c4C)C3)c21 (stereo unspecified) -3.52%
CC(CNC(=O)CN1C(=O)COc2ccc(S(=O)(=O)N3CCCCCC3)cc21)c1ccccc1 (stereo unspecified) -1.73%
COc1ccc(CCNC(=O)c2cccc(-n3cnc4cccnc43)c2C)cc1OC -4.4%
CCCCNC(=O)c1nn(-c2ccc(C)cc2)c(=O)n(C)c1=O 3.8%
Cc1ccccc1CNC(=O)c1cccc(NC(=O)N2CCSc3ncccc32)c1 -4.73%
CCOC(=O)c1c(S(=O)(=O)N2CCCC(C(=O)Nc3cccc(C#N)c3)C2)c(C)n(C)c1C (stereo unspecified) -1.16%
CC(Oc1ccccc1)C(=O)Nc1ccc(OCc2cc(=O)n3ccsc3n2)cc1 (stereo unspecified) 0.892%
Cc1cc2c(cc1S(=O)(=O)N(C)CC(=O)Nc1ccc(C#N)cc1)OCC(=O)N2 -2.1%
NS(=O)(=O)c1ccc(CCNC(=O)c2ccc3nc(CCc4ccccc4)oc3c2)cc1 -4.68%
CCOC(=O)c1c(S(=O)(=O)NCC(=O)Nc2ccc(C)c(N(C)C)c2)c(C)n(C)c1C -0.99%
Cn1c(=O)c2c(SCC(=O)NCc3ccco3)nc(-c3cccc(F)c3)nc2n(C)c1=O -8.11%
CCOc1ccc(CC(=O)Nc2c(C(=O)Nc3ccc(OC)cc3OC)oc3ccccc23)cc1 -2.52%
Cc1ccc(S(=O)(=O)c2cn(CC(=O)Nc3ccccc3C)c3cc4c(cc3c2=O)OCO4)cc1 -3.23%
CC(C)c1nc2ccc(C(=O)NCCCN3CCN(c4cccc(Cl)c4)CC3)cc2o1 3.63%
Cc1cccc(N2CCN(C(=O)CN3C(=O)COc4ccc(S(=O)(=O)N5CCC(C)CC5)cc43)CC2C)c1 (stereo unspecified) -6.5%
CCOC(=O)N1CCN(Cc2nc3cc([N+](=O)[O-])ccc3n2C(C)C)CC1 -16.8%
CCOc1ccc(CNC(=O)c2cnc3sc(N4CCOCC4)nn3c2=O)cc1OC 1.45%
CCOC(=O)C1CCC(CN(Cc2ccc(Cl)cc2)S(=O)(=O)c2cc(Cl)cc(Cl)c2)CC1 (stereo unspecified) 4.71%
Cc1ccc2scc(N3CCC(C)CC3)c(=O)c2c1 4.38%
COc1cccc(NS(=O)(=O)c2ccc3c(c2)[C@H]2C=CC[C@H]2[C@@H](c2ccccc2Cl)N3)c1 -3.31%
Cc1cccn2c(Nc3ccccc3)c(-c3cccs3)nc12 -1.74%
Cc1[nH]c2ccccc2c1C(c1ccccc1)c1ccc(Cl)s1 (stereo unspecified) -29.4%
CCOc1ccccc1NC(=O)CCn1cnnn1 -0.0748%
COc1cccc(CNC(=O)Cc2ccc(NC(=O)N3CCSc4ncccc43)cc2)c1OC -5.01%
Cc1ccccc1CNc1nc(N(C)C)nc2c1cnn2C -1.35%
Cc1ccc(NC(=O)C2CCN(S(=O)(=O)c3ccc4[nH]c(=O)ccc4c3)CC2)cc1C 9.26%
CCc1cccc(CC)c1NC(=O)Cn1c(=O)c(-c2cc(C)ccc2NC(C)=O)nc2ccccc21 1.78%
CCc1ccc(CN(Cc2ccco2)c2cnc(S(C)(=O)=O)nc2C(=O)Nc2c(C)cccc2C)cc1 -13%
Cn1c(=NC(=O)c2ccc(S(=O)(=O)N3CCCC3)cc2)sc2cc(F)ccc21 7.28%
CCc1ccccc1NCc1nnc2n1CCCCC2 0.164%
O=C1COc2cc(S(=O)(=O)CCC(=O)N3CCN(c4ccccc4F)CC3)c(Cl)cc2N1 -1.23%
Cc1ccc(-c2nnc(SCC(=O)c3ccc(Cl)cc3)n2-c2ccccc2)cc1 3.55%
Cc1cccc(N2CCN(S(=O)(=O)c3ccc4c(c3)C(C(C)C)C(=O)N4)CC2)c1C (stereo unspecified) -14.1%
COc1cccc(CN2CCCN(CC(=O)Nc3ccc4c(c3)OCCO4)S2(=O)=O)c1 0%
COc1cccc(N(Cc2nnc3n2CCCCC3)C(=O)Nc2ccccc2)c1 -6.86%
Cc1oc(-c2ccccc2F)nc1CSCC(=O)N1CCN(c2ccccc2)CC1 -10%
Cc1nc2nc(NC(=O)c3ccc(C(C)(C)C)cc3)[nH]n2c(=O)c1Cl -10.3%
CCCCOc1ccc(C(=O)NCCc2sc(-c3ccc(OC)c(OC)c3)nc2C)cc1 -14.6%
CCOc1ccc(CNC(=O)c2ccc3c(c2)N(CC)CCS3)cc1 -0.676%
O=C(Nc1cccc(O)c1)c1cc2nc(-c3ccc(Br)cc3)cc(C(F)(F)F)n2n1 -0.656%
COc1ccc(N2CCN(C(=O)CSc3c4c(nc5ccc(Cl)cc35)CCCC4)CC2)cc1 1.16%
COc1cccc(CCNC(=O)c2cnc3sc(N4CCCCCC4)nn3c2=O)c1 -5.1%
O=C(Nc1ccc2oc(-c3cccnc3)nc2c1)c1ccc(-c2cccc(Cl)c2)o1 8.56%
COc1ccc(CN(C)c2ccc(-c3nc(-c4ccccc4)no3)cc2[N+](=O)[O-])cc1 1.77%
COc1ccc(S(=O)(=O)c2c(Nc3c(C)cccc3C)sc(C(=O)c3ccc4c(c3)OCO4)c2N)cc1 -0.0481%
Cc1ccc(-n2nc3c(=O)n(CC(=O)NC(C)C)nc(C)c3c2C)cc1 -3.65%
COc1cc(NC(=O)CC2C(=O)N(c3cccc(C)c3)C(=O)N2Cc2ccco2)cc(OC)c1 (stereo unspecified) -5.05%
CCC(CC)C(=O)Nc1ccc2nc(SCc3ccccc3)sc2c1 -3.17%
COc1ccc2c(CC(=O)Nc3ccc(C)cc3)coc2c1 -8.34%
COc1ccc(NC(=O)CSC2=Nc3ccccc3C3=NC(CC(=O)NCc4ccco4)C(=O)N23)cc1 (stereo unspecified) -4.63%
O=C(Cn1c(-c2cccs2)cc2ccccc21)N1CCN(c2ccccc2F)CC1 -9.37%
